# Measured values reported in PubChem BioAssay AID504333 (National Center for Advancing Translational Sciences (NCATS), 2011).
# The campaign covered roughly 360,000 compounds. About 16,000 (4.4%) were called active. The inconclusive results got no clear call from the source; some entries with a clear call stand among them for comparison. Calls follow the shape of the dose curve; as a rule, active = well fitted inhibition curve with a large enough effect; inconclusive = small, poorly fitted or top-dose-only effect; inactive = no such curve, though single readings can be large or run the other way. Potencies beside an inconclusive call are fits to weak or partial responses and may not hold up.
# Biological target: Bromodomain adjacent to zinc finger domain protein 2B (Homo sapiens) (UniProt Q9UIF8)
# Test: qHTS Assay for Inhibitors of BAZ2B; also: nearly all actives have a fitted effect of over 60% in size
# Conditions: AlphaScreen BAZ2B-H3K14Ac peptide displacement; activity change, negative = inhibition: at 114 µM (top of the series)
# In short: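 AlphaScreen displacement: compounds (up to 110uM) incubated 30 min at room temperature with a preformed 50 nM BAZ2B/50 nM biotinylated H3K14Ac peptide complex in PBS pH 7.4 with Tween-20. Donor and acceptor beads at 10 ug/mL final added, 20 min light-protected before reading.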
# % is scaled to controls: 0 for no effect and ±100 for the full control effect; potency is read from the fitted curve at half-maximal effect; tags tell the direction and shape of the fitted curve.
# Chain of UniProt Q9UIF8 (Q9UIF8 whole entry, looked up, the tested form may be a part): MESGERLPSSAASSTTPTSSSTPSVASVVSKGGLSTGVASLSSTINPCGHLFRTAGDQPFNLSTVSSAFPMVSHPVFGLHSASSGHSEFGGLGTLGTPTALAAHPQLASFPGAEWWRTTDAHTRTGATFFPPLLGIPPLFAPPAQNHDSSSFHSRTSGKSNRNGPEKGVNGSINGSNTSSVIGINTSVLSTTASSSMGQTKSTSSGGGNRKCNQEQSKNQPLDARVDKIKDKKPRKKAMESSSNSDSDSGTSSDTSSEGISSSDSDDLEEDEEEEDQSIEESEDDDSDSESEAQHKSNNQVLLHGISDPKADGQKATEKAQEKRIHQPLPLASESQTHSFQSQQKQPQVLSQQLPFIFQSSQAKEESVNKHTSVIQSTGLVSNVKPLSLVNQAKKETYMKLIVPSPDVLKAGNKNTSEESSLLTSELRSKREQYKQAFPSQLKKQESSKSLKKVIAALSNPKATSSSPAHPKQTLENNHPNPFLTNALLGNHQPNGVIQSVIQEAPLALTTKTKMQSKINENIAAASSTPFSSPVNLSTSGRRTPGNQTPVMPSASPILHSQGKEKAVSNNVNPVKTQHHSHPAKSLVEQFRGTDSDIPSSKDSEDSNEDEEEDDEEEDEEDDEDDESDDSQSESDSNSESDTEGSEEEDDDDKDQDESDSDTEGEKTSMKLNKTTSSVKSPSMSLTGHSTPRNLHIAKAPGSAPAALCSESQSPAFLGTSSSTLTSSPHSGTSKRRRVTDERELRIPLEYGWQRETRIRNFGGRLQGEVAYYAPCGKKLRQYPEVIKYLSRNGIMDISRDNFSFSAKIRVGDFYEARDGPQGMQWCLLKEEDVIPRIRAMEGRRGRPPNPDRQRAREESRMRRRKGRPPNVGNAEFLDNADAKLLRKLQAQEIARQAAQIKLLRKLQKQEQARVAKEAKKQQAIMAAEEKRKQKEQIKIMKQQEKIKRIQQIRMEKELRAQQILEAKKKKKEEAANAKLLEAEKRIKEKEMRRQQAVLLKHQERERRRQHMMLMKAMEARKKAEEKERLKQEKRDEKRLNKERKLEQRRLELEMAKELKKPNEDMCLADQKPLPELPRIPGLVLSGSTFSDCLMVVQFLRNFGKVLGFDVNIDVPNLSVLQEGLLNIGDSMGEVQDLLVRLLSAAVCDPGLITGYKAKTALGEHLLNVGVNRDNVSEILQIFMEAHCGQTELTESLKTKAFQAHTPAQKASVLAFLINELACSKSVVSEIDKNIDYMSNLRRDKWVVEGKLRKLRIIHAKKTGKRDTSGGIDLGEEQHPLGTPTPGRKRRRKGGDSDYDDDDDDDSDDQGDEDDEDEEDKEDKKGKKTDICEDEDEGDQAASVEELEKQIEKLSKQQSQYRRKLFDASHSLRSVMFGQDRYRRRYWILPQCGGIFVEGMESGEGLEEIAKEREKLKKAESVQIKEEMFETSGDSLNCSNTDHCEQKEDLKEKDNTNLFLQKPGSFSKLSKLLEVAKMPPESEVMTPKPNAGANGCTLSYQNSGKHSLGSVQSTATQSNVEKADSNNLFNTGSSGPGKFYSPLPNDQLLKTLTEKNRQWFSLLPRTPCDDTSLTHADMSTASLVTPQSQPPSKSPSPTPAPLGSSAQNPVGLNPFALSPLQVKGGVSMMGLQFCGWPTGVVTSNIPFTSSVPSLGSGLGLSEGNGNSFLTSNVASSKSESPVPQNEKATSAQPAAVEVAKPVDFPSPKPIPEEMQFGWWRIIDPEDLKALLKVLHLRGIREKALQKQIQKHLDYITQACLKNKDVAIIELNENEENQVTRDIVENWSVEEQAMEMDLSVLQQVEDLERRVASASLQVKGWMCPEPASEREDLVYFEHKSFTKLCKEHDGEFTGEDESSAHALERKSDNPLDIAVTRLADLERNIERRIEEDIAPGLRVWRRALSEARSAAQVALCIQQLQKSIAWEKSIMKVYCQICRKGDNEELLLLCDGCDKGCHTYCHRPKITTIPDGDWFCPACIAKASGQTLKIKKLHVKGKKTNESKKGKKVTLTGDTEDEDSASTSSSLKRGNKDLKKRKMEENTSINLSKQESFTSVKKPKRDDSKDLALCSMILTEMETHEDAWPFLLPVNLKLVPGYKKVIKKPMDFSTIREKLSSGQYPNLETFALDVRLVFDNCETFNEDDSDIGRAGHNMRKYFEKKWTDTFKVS
Structure (SMILES),Potency,"activity change, negative = inhibition"
COC(=O)C1=Nc2ccccc2/C1=C\c1c(O)n(-c2ccc(OC)cc2)c(=O)[nH]c1=O,active: 79.4 µM,–
O=C(O)CCn1cc(C=C2C(=O)NC(=O)NC2=O)c(-c2cc3ccccc3oc2=O)n1,"inconclusive: 79.4 µM [inhibitor, single point]",–
O=C(Nc1ccc2oc(-c3cccnc3)nc2c1)c1ccc(-c2cccc(Cl)c2)o1,active: 56.2 µM,–
Cc1c(N=Nc2c(O)n(-c3ccc(Br)cc3)c(=O)[nH]c2=O)c(=O)n(-c2ccccc2)n1C,active: 28.2 µM,–
CCC1=Nc2cc(C(=O)N3CCC4(CC3)OCCO4)ccc2Sc2ccc(Br)cc21,"inconclusive: 28.2 µM [inhibitor, single point]",–
Cc1cc(SCC(=O)N/N=C/c2ccco2)nc2ccccc12,"inconclusive: 79.4 µM [inhibitor, single point]",–
O=C(N/N=C/c1c(O)n(CCC2=CCCCC2)c(=O)[nH]c1=O)c1ccccc1,"inconclusive: 89.1 µM [inhibitor, single point]",–
COc1ccc(CN2CCNCC2)c(OC)c1OC,"inconclusive: 89.1 µM [inhibitor, single point]",–
CCN1C(=O)C(=Cc2c(C)n(CC(=O)NCC3CCCO3)c3ccccc23)C(=O)N(CC)C1=S (centres undefined),"inconclusive: 50.1 µM [inhibitor, partial curve, poor fit]",–
C/C(CC(c1ccccc1)c1c(O)c2ccccc2oc1=O)=N\Nc1ccc([N+](=O)[O-])cc1[N+](=O)[O-] (centres undefined),active: 35.5 µM,–
OCCN(CC#CC(O)(c1ccccc1)C1CCCC1)CCO (centres undefined),inactive,–
CCCCNC(=O)C1CCCN(Cc2nc(-c3ccc(Cl)cc3)oc2C)C1 (centres undefined),"inconclusive: 89.1 µM [inhibitor, single point]",–
CN(CCc1ccccc1)Cc1ccccc1[N+](=O)[O-],"inconclusive: 0.708 µM [inhibitor, partial curve, poor fit]",–
CN(C)C(Cc1ccccc1)C(=O)c1ccc(-c2ccccc2)cc1 (centres undefined),"inconclusive: 39.8 µM [inhibitor, partial curve]",–
OCCN1C2CCC1CC(O)(c1ccc(F)cc1)C2 (centres undefined),"inconclusive: 12.6 µM [inhibitor, single point]",–
COc1ccc2c(c1)CC1(CN2C)C(=O)NC(=O)N(CCc2ccccc2)C1=O (centres undefined),"inconclusive: 79.4 µM [inhibitor, single point]",–
Fc1ccccc1N1CCN(Cc2ccc3c(c2)OCO3)CC1,active: 35.5 µM,–
COc1ccc(O)c(CN2CCCC(C(=O)c3ccccc3SC)C2)c1 (centres undefined),active: 50.1 µM,–
CCC1(C)CC(CCNCc2ccc(N(C)C)cc2)(c2ccc(F)cc2)CCO1 (centres undefined),active: 35.5 µM,–
COc1ccc(CCNCC2CCCO2)cc1 (centres undefined),"inconclusive: 89.1 µM [inhibitor, single point]",–
COc1ccc(CCn2c(O)c(C=Nc3cccc(F)c3)c(=O)[nH]c2=O)cc1OC,"inconclusive: 89.1 µM [inhibitor, single point]",–
Cc1[nH]c2ccccc2c1CCCNC1CCCCC1,"inconclusive: 50.1 µM [inhibitor, partial curve]",–

Structure (SMILES),Potency,"activity change, negative = inhibition"
CCC(CC)N1CCN(Cc2nc3ccccc3c(=O)n2-c2ccc(F)cc2)CC1,inactive,–
Cc1ccccc1N1C(=O)CC(=O)NC1=O,inactive,–
COc1ccc(CN2C(=O)NC(=O)/C(=C\c3ccco3)C2=O)cc1,active: 28.2 µM,–
CCCCC(=O)N/N=C/c1c(O)n(Cc2ccc(F)cc2)c(=O)[nH]c1=O,"inconclusive: 89.1 µM [inhibitor, single point]",–
c1ccc(C2NCc3ccccc3-n3cccc32)cc1 (centres undefined),"inconclusive: 89.1 µM [inhibitor, single point]",–
Cc1ccc(/C=C2\C(=O)NC(=S)N(c3ccc(F)cc3)C2=O)o1,active: 56.2 µM,–
CN1C(=O)NC(=O)/C(=C\C=C\c2ccccc2[N+](=O)[O-])C1=O,"inconclusive: 70.8 µM [inhibitor, single point]",–
COc1cc(/C=C/[N+](=O)[O-])ccc1O,active: 44.7 µM,–
C/C(CC(=O)N1CCN(C=O)CC1)=N\NC(=O)c1cccc([N+](=O)[O-])c1,"inconclusive: 56.2 µM [inhibitor, partial curve]",–
O=c1[nH]c(=S)n(-c2ccc(Cl)cc2)c(O)c1/C=N/N1CCOCC1,"inconclusive: 89.1 µM [inhibitor, single point]",–
CN1C(=O)C(=Cc2cc([N+](=O)[O-])ccc2N2CCCCC2)C(=O)N(C)C1=O,"inconclusive: 89.1 µM [inhibitor, single point]",–
O=c1[nH]c(=S)[nH]c(O)c1N=Nc1cc(S(=O)(=O)Nc2ccc(Cl)cc2)ccc1Cl,active: 35.5 µM,–
Cc1ccc(Cl)cc1N1CCN(C(=O)C2CCN(Cc3nc(-c4ccc(Cl)cc4)oc3C)CC2)CC1,active: 8.91 µM,–
O=[N+]([O-])c1ccc(-[n+]2c(-c3ccccc3)cc(-c3ccccc3)cc2-c2ccccc2)cc1,"inconclusive: 89.1 µM [inhibitor, single point]",–
COc1ccc2[nH]c(C)c(CCN3CCC(=O)C(C)C3C)c2c1 (centres undefined),"inconclusive: 56.2 µM [inhibitor, partial curve]",–
COc1ccc(CN2C(=O)CC(=O)NC2=S)cc1,"inconclusive: 89.1 µM [inhibitor, single point]",–
O=c1c2ccccc2nc(/C=C/c2ccccc2)n1-c1ccccc1F,inactive,–
CN1CCN(c2cccc3c2C(=O)c2ccccc2C3=O)CC1,"inconclusive: 50.1 µM [inhibitor, partial curve]",–
Cc1[nH]n(-c2ccccc2)c(=O)c1C(c1ccc([N+](=O)[O-])cc1)c1c(C)[nH]n(-c2ccccc2)c1=O,active: 39.8 µM,–
Cc1cccc(N2CCc3c2nc2ccccc2c3N)c1,–,inconclusive: -116% [inhibitor]
Cc1ccccc1N1CCN(S(=O)(=O)c2nnc(NC(=O)c3ccc(Cl)cc3)s2)CC1,"inconclusive: 3.16 µM [inhibitor, full curve, poor fit]",–
N/C(=N\[N+](=O)[O-])N1CCN(C(=O)c2ccccn2)CC1,"inconclusive: 89.1 µM [inhibitor, single point]",–
